For 3 molecules, Kd results are on record in patent US20260176310A1 (NAVIGO PROTEINS, published 2026).

Experiment [1] addresses T1, hFAP-Fc (human, UniProt Q12884 26-760).
T1 construct: extracellular domain; Made in house in Expi293-F cells; also called hFAP-Fc-His; human FAP; not shown: IgG1-Fc
T1 sequence (looked up): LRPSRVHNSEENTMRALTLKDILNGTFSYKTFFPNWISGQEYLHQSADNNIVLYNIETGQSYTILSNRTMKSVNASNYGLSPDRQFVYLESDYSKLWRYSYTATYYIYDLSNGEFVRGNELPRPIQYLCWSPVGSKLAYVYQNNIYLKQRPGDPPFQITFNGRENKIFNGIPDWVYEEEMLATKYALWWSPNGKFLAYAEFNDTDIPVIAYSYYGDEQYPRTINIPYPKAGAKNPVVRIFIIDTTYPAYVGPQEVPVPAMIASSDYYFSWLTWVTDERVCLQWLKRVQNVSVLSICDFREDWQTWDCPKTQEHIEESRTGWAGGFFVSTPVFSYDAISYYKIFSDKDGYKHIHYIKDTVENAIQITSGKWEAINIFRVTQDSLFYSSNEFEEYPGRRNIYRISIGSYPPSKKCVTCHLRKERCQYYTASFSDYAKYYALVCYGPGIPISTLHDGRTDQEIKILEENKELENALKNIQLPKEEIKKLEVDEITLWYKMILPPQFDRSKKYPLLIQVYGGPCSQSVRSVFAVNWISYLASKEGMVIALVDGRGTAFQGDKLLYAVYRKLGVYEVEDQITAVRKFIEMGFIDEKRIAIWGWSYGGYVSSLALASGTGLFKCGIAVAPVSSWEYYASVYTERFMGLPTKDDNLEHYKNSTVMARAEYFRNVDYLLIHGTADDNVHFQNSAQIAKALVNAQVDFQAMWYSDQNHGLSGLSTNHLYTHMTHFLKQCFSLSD
Nature of the experiment: ELISA on coated hFAP-Fc; Affilin in human serum, 0 h. How it is done: High binding plates (Greiner, 781061) were immobilized with 2.5 μg/ml hFAP-Fc over night at 4° C. Dilution series of 3 µM to 0.07 PM of Affilin® proteins were incubated in 100% human serum or 100% mouse serum for 24 h at 37° C.
ELISA-plates were washed three times with PBST (PBS+ 0.1% Tween) and blocked with 3% BSA/0.5% Tween/PBS 1 h at rt. After preincubation for 0 h or 24 h in the presence of serum the dilution series were incubated on ELISA-plates for 30 min at room temperature (rt). Wells were washed with PBST and incubated with biotinylated anti-ubiquitin-antibody (1:300) for 30 min at rt. The binding was visualized with Streptavidin-HRP (1:5.000). […] ELISA analysis confirmed the high stability of FAP binding proteins in serum.
(In an ELISA, binding on a coated surface is turned into a signal by an enzyme label.)

The target in experiment [2] is T2, mFAP-Fc (mouse, UniProt P97321 26-761).
T2 construct: extracellular domain; Made in house in ExpiCHO cells; also called mFAP-Fc-His; mouse FAP; not shown: IgG1-Fc
T2 sequence (looked up): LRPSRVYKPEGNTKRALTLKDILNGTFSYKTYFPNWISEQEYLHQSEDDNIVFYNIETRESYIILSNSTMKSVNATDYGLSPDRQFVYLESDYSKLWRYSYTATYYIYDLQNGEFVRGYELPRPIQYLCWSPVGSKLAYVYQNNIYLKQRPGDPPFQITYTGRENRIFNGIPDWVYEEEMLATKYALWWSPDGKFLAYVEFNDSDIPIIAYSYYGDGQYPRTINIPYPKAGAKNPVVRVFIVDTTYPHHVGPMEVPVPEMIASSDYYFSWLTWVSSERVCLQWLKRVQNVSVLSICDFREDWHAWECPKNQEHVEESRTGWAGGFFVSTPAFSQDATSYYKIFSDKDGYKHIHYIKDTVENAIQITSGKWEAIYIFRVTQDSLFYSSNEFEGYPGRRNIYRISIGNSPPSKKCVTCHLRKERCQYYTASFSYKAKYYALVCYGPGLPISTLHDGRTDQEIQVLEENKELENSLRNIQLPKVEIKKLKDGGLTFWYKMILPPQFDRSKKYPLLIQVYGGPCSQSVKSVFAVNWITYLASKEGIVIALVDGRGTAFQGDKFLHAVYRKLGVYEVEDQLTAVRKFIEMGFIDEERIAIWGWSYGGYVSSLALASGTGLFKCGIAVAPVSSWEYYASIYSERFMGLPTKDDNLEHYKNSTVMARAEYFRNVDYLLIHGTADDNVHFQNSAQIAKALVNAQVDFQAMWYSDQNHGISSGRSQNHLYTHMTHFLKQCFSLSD
Description: SPR, Fc-tagged target captured on protein A. How it is done: Recombinant protein A was immobilized on a High Capacity Amine sensor chip (Bruker) after NHS/EDC activation resulting in approx. 2000 RU with a Sierra SPR-32 system (Bruker). The chip was equilibrated with SPR running buffer (PBS 0.05%, Tween pH 7.3). Injection of ethanolamine after ligand immobilization was used to block unreacted NHS groups. The Fc-tagged FAP and CD26 target molecules were injected with 60 nM followed by the injection of FAP binding proteins. Upon binding, target analyte was accumulated on the surface increasing the refractive index. This change in the refractive index was measured in real time and plotted as response or resonance units versus time. The FAP binding proteins were applied to the chip in serial dilutions with a flow rate of 30 μl/min. The association was performed for 120 seconds and the dissociation for 180 seconds. After each run, the chip surface was regenerated with 30 μl regeneration buffer (10 mM glycine pH 2.0) and equilibrated with running buffer. Binding studies were carried out by the use of the Sierra SPR-32 system (Bruker); data evaluation was operated via the Sierra Analyser software, provided by the manufacturer, by the use of the Langmuir 1:1 model (RI=0). Evaluated dissociation constants (KD) were standardized against the immobilized protein and indicated.
(Surface plasmon resonance follows binding to a sensor surface in real time, without labels.)

B1: Affilin®-220257 (designed binder)
chain: MQIFVWTITGKPITLEVEPSDTIENVKAKIQDKEGIPPDQQRLIWAGKQLEDGRTLSDYNIRSWPNLHLVLRLRAGMQIVVHTATGKTITLEVEPSDTIGHVKAKIQDTEGIPPDQQRLIWAGKQLEDGRTLSDYNIEDFPPLHLVLRLRAA
notes: Ubiquitin mutein
The term Kd denotes the free concentration of one partner at which half of the binding sites on the other are occupied at equilibrium, for simple one-to-one binding. A high value points to lower affinity. Regarding B1, the dissociation constant Kd in experiment [1] came out at 0.3 nM.

B2: Affilin®-217990 (designed binder)
chain: MQIFVKTLTPEWHIIGKTITLEVEPSDTIENVKAKIQDKEGIPPDQQNLAWAGKQLEDGRTLSDYNIQGGSMLMLKLHLRAA
notes: Ubiquitin mutein
As to B2, the results for the Kd in experiment [1] and in experiment [2] were 1.2 nM and 90 nM, respectively.

B3: Affilin®-220164 (designed binder)
chain: MQIFVWTDDWKRITLEVEPSDTIENVKAKIQDKEGIPPDQQVLAWRGKQLEDGRTLSDYNIMVWPNLWLRLRAA
notes: Ubiquitin mutein
In the case of B3, the results for the Kd in experiment [1] and in experiment [2] were 0.6 nM and 3.1 nM, respectively.
